In the supplement of paper PMC10338343:
± gives the standard deviation. The entries are a selection whose mix differs from that of the whole data set.

Test system: MIWI (PIWIL1) piRISC loaded with L1MC piRNA (30 nt)
Experiment: pre-steady-state target cleavage rate (min^-1); MIWI and MILI are mouse PIWI proteins and EfPiwi is from a freshwater sponge; tags in brackets are library labels; higher = faster piRNA-guided slicing of the target
Conditions: guide: L1MC piRNA 5'p-UAACUAAAUACUAUGCAAGCUGUAGGUCCU; auxiliary factor: 500 nM mouse GTSF1
Method in brief: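 Cleave-'n-Seq reactions paired 0.1 nM transcribed, DNA-blocked target RNA library with 1 nM active affinity-purified piRISC holding one synthetic guide, plus or minus 500 nM GTSF1 partner protein, in HEPES–potassium acetate buffer at 33 °C for 0–8 or 0–960 min. After sequencing of uncleaved targets and normalisation to depth and weakly complementary targets, the pre-steady-state cleavage rate was taken from a burst-and-steady-state fit. Three trials were pooled, and k3 was capped at 0.0001 min^-1.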

Row | Sequence | pre-steady-state target cleavage rate
1 | AGGACCUACAGCUUGCAUAGUAUUAAGAUA | 0.374 ± 0.057
2 | UCCUGGAUCAGCUUGCAUAGUAUUAAGUUA | 0.758 ± 0.038
3 | AGCACCUUCAGCUUGCAUAGUAUUUAGUUA | 0.711 ± 0.089
4 | UCCUGGAUGUGCAUUGCAUAGUAUUUAGUUA | 0.223 ± 0.023
5 | UCCUCGUACAGCUUGCAUAGUAUAUAGUUA | 0.851 ± 0.036
6 | UCCUGGUACAGCUUGCAUAGAAUUUAGUUA | 0.452 ± 0.083
7 | AGGACCUUCAGCUUGCAUUGUAUUUAGUUA | 0.966 ± 0.031
8 | ACGACCUACAGCUUGCAUAGUAUUAAGUUA | 0.678 ± 0.029
9 | UCCACCUACAGCUAGCAUACUAUUUAGUUA | 0.363 ± 0.033
10 | ACGACCUACAGCUUGCAUAGAAUUUAGUUA | 0.533 ± 0.038
11 | UCCACCUACAGCUUGGAUAGUAUUAAGUUA | 0.505 ± 0.048
12 | AGGACCUACAGCUAGCAUAGUAUUUAGAUA | 0.593 ± 0.057
13 | AGGACGUACUGCUUGCAUAGUAUUUAGUUA | 0.965 ± 0.062
14 | UCCUGGUUCAGCUUGCAUACUAUUUAGUUA | 0.232 ± 0.026
15 | UCCACGUACAGCUUGCAUAGUAUUUAGAAA | 0.341 ± 0.037
16 | UCCUCGUACAGCAUGCAUAGUAUUUAGUUA | 1.28 ± 0.064

Same assay, conditions: guide: L1MC piRNA 5'p-UAACUAAAUACUAUGCAAGCUGUAGGUCCU; auxiliary factor: none (no GTSF1)

Row | Sequence | pre-steady-state target cleavage rate
17 | UGGACCUACAGCUUCCAUAGUAUUUAGUUA | 0.00426 ± 0.0014
18 | AGGACCUACAGCUUGCAUAGUAUUUAGCUUA | 0.0351 ± 0.0088
19 | AGGACCUACACGAUGCAUAGUAUUUAGUAA | 0.00365 ± 0.0024
20 | UCCUGGAUCAGCUGUGCAUAGUAUUUAGUUA | 0.0209 ± 0.0046
21 | UGGACCUACAGGCUUGCAUAGUAUUUAGUUA | 0.0754 ± 0.014
22 | UCGACCUACAGCUUGGAUAGUAUUUAGAAA | 0.00679 ± 0.002
23 | UCCUGCUACAGGAUGCAUAGUAUUUAGUUA | 0.00727 ± 0.0014
24 | UGGAGCUACAGCUUGGAUAGUAUUUAGUUA | 0.0533 ± 0.0083
25 | UCGACCUACUCCUUGCAUAGUAUUUAGAAA | 0.00587 ± 0.0015
26 | AGGAGCUACAGCUUGCAUAGUAUUAAGUUA | 0.0457 ± 0.0092
27 | UCGACCUACAGCUAGGAUAGUAUUUAGUUA | 0.00874 ± 0.0021
28 | UCCUCCUAGAGCUUGCAAAGUAUUUAGUUA | 0.0237 ± 0.0051
29 | AGGACCUACAGCAUGCAUAGUAUUUAGAAA | 0.00715 ± 0.0031
30 | UGGACCUACACCUUGCAUAGUAAUUAGUUA | 0.0215 ± 0.0063
31 | UCCACCUACAGCUUGCAUAGAAUUUACUUA | 0.0144 ± 0.0047
32 | UCCACCUACAGCUAGCAUAGUUUUUAGUUA | 0.0134 ± 0.0026
33 | UGGUCCUACAGCUUGCAUUGUAUUUAGUUA | 0.0435 ± 0.0083
34 | UCCUCCUACAGCUUGCAUAGUAUAUAGAUA | 0.00345 ± 0.0023
35 | UCCUGGAACAGCUUGCAUAGCAUUUAGUUA | 0.0329 ± 0.0074
36 | UCCUGGAUGUGCUUGCAUAGUAAUUUAGUUA | 0.00505 ± 0.0037

Row | Sequence | pre-steady-state target cleavage rate
37 | UCCUGGAUGAGCUUGCAUAGUAUUUACGUUA | 0.0216 ± 0.0057
38 | UCCUGCUAGAGCUUGCAUUGUAUUUAGUUA | 0.0241 ± 0.0055
39 | UCCACCUACUGCAUGCAUAGUAUUUAGUUA | 0.0308 ± 0.0066
40 | UCCUGGUAAGCUUGCAUAGUAUUUAGUUA | 0.0615 ± 0.014
41 | AGGACCUACAGCUUGCAUAGUAUUAAGAUA | 0.00793 ± 0.003
42 | UCCUGGAUCAGCUUGCAUAGUAUUAAGUUA | 0.0192 ± 0.0072
43 | AGCACCUUCAGCUUGCAUAGUAUUUAGUUA | 0.0548 ± 0.014
44 | UCCUGGAUGUGCAUUGCAUAGUAUUUAGUUA | 0.0111 ± 0.0032
45 | UCCUCGUACAGCUUGCAUAGUAUAUAGUUA | 0.0232 ± 0.0062
46 | UCCUGGUACAGCUUGCAUAGAAUUUAGUUA | 0.0136 ± 0.0044
47 | AGGACCUUCAGCUUGCAUUGUAUUUAGUUA | 0.0424 ± 0.01
48 | ACGACCUACAGCUUGCAUAGUAUUAAGUUA | 0.0377 ± 0.0092
49 | UCCACCUACAGCUAGCAUACUAUUUAGUUA | 0.0133 ± 0.0036
50 | ACGACCUACAGCUUGCAUAGAAUUUAGUUA | 0.0408 ± 0.01
51 | UCCACCUACAGCUUGGAUAGUAUUAAGUUA | 0.0176 ± 0.0034
52 | AGGACCUACAGCUAGCAUAGUAUUUAGAUA | 0.015 ± 0.0045
53 | AGGACGUACUGCUUGCAUAGUAUUUAGUUA | 0.0573 ± 0.0079
54 | UCCUGGUUCAGCUUGCAUACUAUUUAGUUA | 0.02 ± 0.005
55 | UCCACGUACAGCUUGCAUAGUAUUUAGAAA | 0.00692 ± 0.0022
56 | UCCUCGUACAGCAUGCAUAGUAUUUAGUUA | 0.0195 ± 0.0041
